Binding data for seven substances are collected here from article PMC4933444.

Chains of the proteins cited; added tags and fusions are not shown.
UniProt Q00987: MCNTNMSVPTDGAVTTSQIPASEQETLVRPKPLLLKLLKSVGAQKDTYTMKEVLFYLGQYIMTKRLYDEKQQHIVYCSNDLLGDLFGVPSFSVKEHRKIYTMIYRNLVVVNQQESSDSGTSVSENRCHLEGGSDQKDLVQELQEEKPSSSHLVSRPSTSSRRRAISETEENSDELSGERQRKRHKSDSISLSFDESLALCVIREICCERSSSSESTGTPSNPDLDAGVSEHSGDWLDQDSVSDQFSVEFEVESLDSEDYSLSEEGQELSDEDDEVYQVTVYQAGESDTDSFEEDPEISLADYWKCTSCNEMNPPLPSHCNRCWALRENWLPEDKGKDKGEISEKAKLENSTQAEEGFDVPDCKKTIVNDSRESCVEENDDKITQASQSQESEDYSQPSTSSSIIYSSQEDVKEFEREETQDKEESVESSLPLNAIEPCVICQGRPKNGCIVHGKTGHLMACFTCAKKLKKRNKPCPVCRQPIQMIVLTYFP
UniProt Q9NQB0: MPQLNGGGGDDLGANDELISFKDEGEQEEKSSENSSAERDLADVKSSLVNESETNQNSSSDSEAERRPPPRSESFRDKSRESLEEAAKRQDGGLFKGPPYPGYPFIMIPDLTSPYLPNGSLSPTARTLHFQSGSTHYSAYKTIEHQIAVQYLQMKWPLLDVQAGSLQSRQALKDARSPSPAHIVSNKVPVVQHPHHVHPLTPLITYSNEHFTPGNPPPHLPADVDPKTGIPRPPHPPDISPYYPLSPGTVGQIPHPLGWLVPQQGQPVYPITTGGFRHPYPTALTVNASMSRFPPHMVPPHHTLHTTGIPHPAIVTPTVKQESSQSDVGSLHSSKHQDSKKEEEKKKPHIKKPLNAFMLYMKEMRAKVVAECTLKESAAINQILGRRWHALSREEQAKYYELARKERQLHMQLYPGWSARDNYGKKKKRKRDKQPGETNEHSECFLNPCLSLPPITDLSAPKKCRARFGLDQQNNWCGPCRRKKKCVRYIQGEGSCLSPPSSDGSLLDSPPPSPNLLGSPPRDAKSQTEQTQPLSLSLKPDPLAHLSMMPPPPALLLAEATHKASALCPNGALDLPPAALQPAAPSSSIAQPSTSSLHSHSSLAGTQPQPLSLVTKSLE

One experiment concerns the target T1, HA-tagged HBP1 (UniProt O60381).
T1 sequence: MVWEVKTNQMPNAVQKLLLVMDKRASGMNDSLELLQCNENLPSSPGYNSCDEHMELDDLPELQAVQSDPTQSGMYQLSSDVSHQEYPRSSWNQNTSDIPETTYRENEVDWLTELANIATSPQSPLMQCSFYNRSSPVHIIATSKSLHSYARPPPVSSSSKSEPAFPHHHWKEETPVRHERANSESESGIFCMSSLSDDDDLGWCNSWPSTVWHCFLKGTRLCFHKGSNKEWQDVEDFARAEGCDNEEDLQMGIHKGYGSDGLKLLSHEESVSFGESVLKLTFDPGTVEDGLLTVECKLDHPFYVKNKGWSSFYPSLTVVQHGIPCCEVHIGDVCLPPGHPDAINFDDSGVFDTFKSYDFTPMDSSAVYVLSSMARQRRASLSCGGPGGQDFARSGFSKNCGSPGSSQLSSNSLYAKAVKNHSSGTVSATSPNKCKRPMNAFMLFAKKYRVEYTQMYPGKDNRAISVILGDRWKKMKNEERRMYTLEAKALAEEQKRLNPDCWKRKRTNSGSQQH
The experiment is described as follows: co-IP; H1299 cells cotransfected with HA-HBP1 and FLAG-p53 or FLAG-Mdm2, lysed 24 h after transfection in IP lysis buffer; IP with anti-HA or anti-FLAG, Western blot with anti-FLAG or anti-HA. A general note: Immunoblotting shows a protein as a band on a membrane.

In experiment [1] the target is T2, GST-HBP1 (N-terminal GST-tagged, full-length HBP1) (UniProt O60381).
T2 sequence: T1 sequence
Kind of experiment: pull-down; GST pull-down: purified GST or GST-tagged proteins on glutathione-Sepharose beads overnight at 4 °C, His-tagged proteins added for 4 h at 4 °C, washed three times, eluted, Western blot; both purified.

The target in experiment [2] is T3, high-mobility group box-containing protein 1 (HBP1), endogenous (human (endogenous in A549 and WI-38)) (UniProt O60381).
T3 sequence: T1 sequence
Kind of experiment: co-IP; endogenous proteins, A549 whole cell lysates in IP lysis buffer (25 mM Tris-HCl pH 7.4, 150 mM NaCl, 1% Nonidet P-40, 1 mM EDTA, 5% glycerol); IP with anti-p53 (9282), anti-HBP1 or anti-Mdm2 and protein A-Sepharose overnight at 4 °C, Western blot; in Fig. 4B (right) cells with pLL3.7 or shHBP1, IP with anti-p53.

For experiment [3], the target named is T3, high-mobility group box-containing protein 1 (HBP1), endogenous (human (endogenous in A549 and WI-38)). The experiment is described as follows: co-IP; endogenous proteins, WI-38 cells (young and senescent) lysed with IP lysis buffer; IP with anti-HBP1, Western blot with anti-Mdm2 and anti-TCF4.

No constants are given. Whether binding was seen depends on the method and setting. For some assays here: In cells and extracts the contact can be indirect. Some results given as binding are weak or reduced against the parent protein; the word gives no strength. For some assays here: Tags and fused reporters may be left off the sequences shown.

Regarding “FLAG-tagged Mdm2 (from UniProt Q00987 1-491)”, the binding entry with HA-tagged HBP1 is “binds”.

On to “FLAG-tagged p53 (from UniProt P04637 1-393)”, for which, in the experiment with HA-tagged HBP1, the binding result is on record as “binds”.

In the case of His-Mdm2 (from UniProt Q00987 1-491), the binding result in experiment [1] is “binds”.

As for His-p53 (from UniProt P04637 1-393), the binding entry in experiment [1] is reported as “binds”.

On to “Mdm2, endogenous (from UniProt Q00987 1-491)”, for which the binding entry in experiment [2] and in experiment [3] was “binds” in each case.

In the case of “TCF4, endogenous (from UniProt Q9NQB0 1-619)”, the binding entry in experiment [3] is reported as “binds”.

Consider “p53, endogenous (from UniProt P04637 1-393)”, for which the binding result in experiment [2] was “binds”.
